According to PubChem BioAssay AID1508623 (National Center for Advancing Translational Sciences (NCATS), 2021):
Among all 48,000 compounds or so, about 450 (0.94%) were called active. Inconclusive means that the source gave no clear call. Such entries were picked first, then a sample of the others. Calls follow the shape of the dose curve; as a rule, active = well fitted inhibition curve with a large enough effect; inconclusive = small, poorly fitted or top-dose-only effect; inactive = no such curve, though single readings can be large or run the other way. Potencies of inconclusive entries are doubtful fits and often do not repeat.

Experiment: Primary qHTS for Identification of Small Molecule Inhibitors of Huntingtin Promoter Activity; also: nearly all actives have a fitted effect of over 50% in size
Conditions: HEK293 HTT promoter firefly luciferase reporter (activity 0% = vehicle and -100% = no light), 24 h; series mostly up to 57.5 µM
Outline: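 Quantitative HTS used concentration series of up to 57.5 uM final on HEK293 luciferase reporter cells, 24 h at 37 degrees C. Readout was Dual-Glo firefly luminescence.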
Potency is read from the fitted curve at half-maximal effect; tags tell the direction and shape of the fitted curve.

Row | SMILES | Potency
1 | O=C(NCc1ccccn1)c1nn(-c2ccccc2F)nc1CO | inconclusive: 17.8 µM [inhibitor, partial curve, poor fit]
2 | Fc1ccccc1C1=NC(c2ccc(C(F)(F)F)cc2)=Nc2ccccc2N1 | inconclusive: 31.6 µM [inhibitor, single point]
3 | O=C(Nc1c2c(nn1-c1ccc(Cl)cc1)CS(=O)(=O)C2)c1cccc(Cl)c1 | inconclusive: 20 µM [inhibitor, partial curve]
4 | CC(=O)N1c2ccc(S(=O)(=O)NCCC(=O)Nc3ccc(C)cc3Br)cc2CC1C (centres undefined) | inconclusive: 20 µM [inhibitor, partial curve]
5 | COC(=O)c1ccc(Cn2c(SCC(=O)Nc3ccc(F)cc3)nc3ccccc32)cc1 | inconclusive: 39.8 µM [inhibitor, partial curve, poor fit]
6 | CCCCOc1ccc(C(=O)Nc2ccc3c(c2)CCCN3S(=O)(=O)c2ccc(C)cc2)cc1 | inconclusive: 1.78 µM [inhibitor, full curve]
7 | CCc1nnc(NC(=O)CSc2nc3c([nH]c4ccccc43)c(=O)n2-c2ccc(OC)cc2)s1 | inconclusive: 28.2 µM [inhibitor, partial curve, poor fit]
8 | O=C(C1CCCCC1)N(Cc1cccnc1)c1nc2ccc(F)cc2s1 | inconclusive: 39.8 µM [inhibitor, single point]
9 | CCOC(=O)c1c(Nc2cccc(C)c2)nnc(-c2ccccc2)c1-c1ccccc1 | inconclusive: 35.5 µM [inhibitor, partial curve, poor fit]
10 | COc1cc(-c2ccno2)ccc1S(=O)(=O)N1CCN(c2ccc(F)cc2)CC1 | inconclusive: 35.5 µM [inhibitor, single point]
11 | CCOC(=O)N1CCC(NC(=O)c2ccc3c(c2)N(Cc2ccc(Cl)cc2)C(=O)c2ccccc2S3=O)CC1 (centres undefined) | inconclusive: 22.4 µM [inhibitor, partial curve, poor fit]
12 | CCOC(=O)c1nc(Nc2cccc(C)c2)c2ccccc2n1 | inconclusive: 14.1 µM [inhibitor, partial curve, poor fit]
13 | CCCCCOc1ccc(C(=O)N(Cc2ccccc2)C2CCS(=O)(=O)C2)cc1 (centres undefined) | inconclusive: 39.8 µM [inhibitor, single point]
14 | Cc1ccc2nc(/C(C#N)=C/c3ccc(-c4cccc(Cl)c4)o3)[nH]c2c1 | inactive
15 | Cc1cccc(CS(=O)(=O)Cc2ccc(C(=O)NCc3ccc(Cl)cc3)o2)c1 | inconclusive: 12.6 µM [inhibitor, partial curve, poor fit]
16 | COc1ccc(-c2cccc(NS(=O)(=O)c3cc(C)c(Cl)cc3C)c2)nn1 | inconclusive: 28.2 µM [inhibitor, partial curve, poor fit]
17 | Cc1cc(NC(=O)CN(C)S(=O)(=O)c2ccc3c(c2)CCC(=O)N3)ccc1Br | inconclusive: 31.6 µM [inhibitor, partial curve, poor fit]
18 | Cc1cccc(Cn2c(C)c(C)c3cc(C(=O)NCc4ccc(C)o4)ccc32)c1 | inconclusive: 31.6 µM [inhibitor, single point]
19 | CCOc1ccc(CCNC(=O)c2cc3c(-c4cccc(OC)c4)nn(C)c3s2)cc1OCC | inconclusive: 11.2 µM [inhibitor, partial curve]
20 | CCC(C(=O)NCCc1ccc(Cl)cc1)n1nc(C)c2c(C)n(-c3ccccc3)nc2c1=O (centres undefined) | inconclusive: 39.8 µM [inhibitor, partial curve, poor fit]

Row | SMILES | Potency
21 | COc1ccccc1NC(=O)CSc1ncc2c(n1)-c1cc(Cl)ccc1N(C)S2(=O)=O | inconclusive: 39.8 µM [inhibitor, single point]
22 | CC(=O)N1CCCc2cc(S(=O)(=O)N3CCCC(C(=O)NCc4ccc(Cl)cc4)C3)ccc21 (centres undefined) | inconclusive: 14.1 µM [inhibitor, partial curve, poor fit]
23 | COc1ccc(C2CC(=O)N3CN(C4CCCCC4)CSC3=C2C#N)cc1 (centres undefined) | inactive
24 | O=C(Nc1ccc2c(c1)N(C1CCCC1)C(=O)c1ccccc1S2)c1ccccc1 | inconclusive: 12.6 µM [inhibitor, single point]
25 | COc1ccc(CCNC(=O)C(=O)NCC(c2cccs2)S(=O)(=O)c2ccccc2)cc1 (centres undefined) | inconclusive: 25.1 µM [inhibitor, partial curve, poor fit]
26 | COc1cccc(-c2nc(CS(=O)CC(=O)N3CCN(c4cccc(C(F)(F)F)c4)CC3)c(C)o2)c1 (centres undefined) | inconclusive: 20 µM [inhibitor, partial curve, poor fit]
27 | COc1ccc(OC)c(CNS(=O)(=O)c2ccc(-c3cc(C(F)(F)F)on3)s2)c1 | inconclusive: 20 µM [inhibitor, partial curve, poor fit]
28 | CC(C)CCNC(=O)CSc1nc2ccsc2c(=O)n1Cc1ccccc1Cl | inconclusive: 35.5 µM [inhibitor, partial curve]
29 | Cc1cccc(NC(=O)c2c(Br)sc3c2CCCC3)c1 | inactive
30 | COc1ccccc1N1CCN(C(=O)CSc2nc(-c3ccc(C(C)C)cc3)no2)CC1 | inconclusive: 25.1 µM [inhibitor, single point]
31 | COc1ccc(C2CC(=O)c3c([nH]c(C(=O)OCc4ccccc4)c3C)C2)cc1OC (centres undefined) | inconclusive: 1.78 µM [inhibitor, full curve]
32 | O=C(NCCCN1CCN(c2ccccc2)CC1)c1cc2c(s1)-c1ccccc1OC2 | inconclusive: 28.2 µM [inhibitor, single point]
33 | CCOC(=O)c1c(C)oc2nc(C)nc(NCCCN3CCN(c4cccc(C)c4)C(C)C3)c12 (centres undefined) | inactive
34 | COc1cc(Nc2ncc3c(n2)-c2ccc(Cl)cc2C(c2c(F)cccc2OC)=NC3)ccc1C(=O)O | inconclusive: 30.6 µM [inhibitor, partial curve]
35 | CCCCOc1cccc(C(=O)N(Cc2ccc(Cl)cc2)C2CCS(=O)(=O)C2)c1 (centres undefined) | inconclusive: 39.8 µM [inhibitor, single point]
36 | CC(=O)c1ccc(N2CCN(C(=O)CS(=O)(=O)c3cccc4nsnc34)CC2)cc1 | inactive
37 | CC(=O)Oc1ccc(C2(c3ccc(OC(C)=O)cc3)Oc3ccccc3NC2=O)cc1 | inconclusive: 35.5 µM [inhibitor, single point]
38 | Cc1cc(=O)[nH]c2nnc(SCCC(C)C)n12 | inactive
39 | O=C(c1cccc(Cl)c1)N1CCC(c2nc3c(nnn3Cc3ccc(F)cc3F)c(=O)[nH]2)CC1 | inconclusive: 20 µM [inhibitor, single point]
40 | COc1cc(C(=O)Nc2ccccc2OCc2cc(=O)n3cc(C)sc3n2)cc(OC)c1OC | inactive

Row | SMILES | Potency
41 | CCOc1ccccc1C(=O)N(Cc1ccc(N(C)C)cc1)Cc1ccco1 | inconclusive: 35.5 µM [inhibitor, single point]
42 | CCN(CC)CCOC(=O)c1ccc(NC(=O)c2nn(-c3ccc(C)cc3)c(=O)c3c2c2ccccc2n3C)cc1 | inactive
43 | Cc1ccc(C)c(NC(=O)C(=O)NCC(c2cccnc2)N2CCN(c3ccc(F)cc3)CC2)c1 (centres undefined) | inconclusive: 31.6 µM [inhibitor, partial curve, poor fit]
44 | COc1ccc(CNC(=O)c2oc3c(c2C)-c2nn(Cc4ccccc4Cl)cc2CC3)cc1 | inconclusive: 31.6 µM [inhibitor, partial curve, poor fit]
45 | CCOC(=O)c1ccc(NC(=O)c2nc(S(=O)(=O)Cc3ccccc3)ncc2Cl)cc1 | inconclusive: 39.8 µM [inhibitor, single point]
46 | CCOC(=O)c1cc(-c2ccc(F)cc2)n(CCC(=O)Nc2ccccc2OC)c1C | inconclusive: 12.6 µM [inhibitor, partial curve, poor fit]
47 | Cc1ccc(CSc2nc(=O)c3c(C)cc(C)nc3n2C2CC2)cc1 | inconclusive: 39.8 µM [inhibitor, single point]
48 | CCOc1ccc(N2CC(c3nc4ccccc4n3CCCOc3ccc(OC)cc3)CC2=O)cc1 (centres undefined) | inconclusive: 28.2 µM [inhibitor, single point]
49 | CC(C)c1ccc(C2c3c(-c4ccccc4O)n[nH]c3C(=O)N2CCc2ccccc2)cc1 (centres undefined) | inconclusive: 39.8 µM [inhibitor, single point]
50 | CCN(CC)CCn1c(=N)n(CC(O)COc2ccccc2C)c2ccccc21 (centres undefined) | inconclusive: 39.8 µM [inhibitor, single point]
51 | COc1ccc(CNC(=O)Cc2c(C)c3c(cc(C)c4c(C)coc43)oc2=O)cc1 | inactive
52 | C#CC1(O)CC[C@H]2[C@@H]3CCC4=CCCC[C@@H]4[C@H]3CC[C@@]21C (some centres undefined) | inactive
53 | Cc1ccccc1-c1noc(CSc2nnc(Cc3ccccc3)n2-c2ccc(F)cc2)n1 | inconclusive: 31.6 µM [inhibitor, single point]
54 | COc1ccc(-c2noc(CSc3nnc(-c4ccncc4)n3-c3ccccc3)n2)cc1 | inconclusive: 28.2 µM [inhibitor, partial curve, poor fit]
55 | C#C[C@]1(O)CC[C@@H]2[C@@H]3CCC4=CC(=O)CC[C@@H]4[C@H]3CC[C@@]21CC | inactive
56 | Cc1c(Cl)cccc1NC(=O)c1ccc2nc(C(C)C)oc2c1 | inconclusive: 11.2 µM [inhibitor, partial curve, poor fit]
57 | CC(=O)Nc1cc(-c2ccccc2)nn1Cc1cccc(Cl)c1 | inactive
58 | Cc1ccc(NC(=O)Cn2c(=O)oc3cc(S(=O)(=O)N4CCC(C)CC4)ccc32)cc1Cl | inconclusive: 7.94 µM [inhibitor, partial curve, poor fit]
59 | Cc1cccc(C(=O)N(Cc2ccco2)Cc2ccccc2F)c1 | inconclusive: 31.6 µM [inhibitor, partial curve]
